Data published in the supplement of paper PMC4967469.
The IC50 comes from the fitted curve, where viability falls to half of the control; fits outside the tested doses are given as limits. AUC sums up the same curve from the lowest dose to the 256-fold higher top dose; it is 1 without any effect and falls as sensitivity rises. For part of these data: The top dose, if marked as inferred, was derived from the fitted curves, not read from the paper.

Legend:
Test in all cases: Viability of human cancer cell lines after 72 h of drug (GDSC screen)
[1] = compound: C=CC(=O)Nc1cc(-n2c(=O)ccc3cnc4ccc(-c5ccc(NS(C)(=O)=O)cc5)cc4c32)ccc1C [BMX-IN-1 (QL-XII-61)]; details: top dose 10 µM; top dose inferred
Experimental: (§1)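 Human cancer cell lines in 384-well plates, medium with 10% serum, drug for 72 h over a 256-fold dose range (nine 2-fold or five 4-fold steps up to the top dose). Adherent lines were fixed and stained with the nucleic acid dye Syto60, suspension lines read with resazurin; signal relative to control wells, capped at 0 and 100%. One two-parameter sigmoid per drug and line, fitted in a mixed model over all curves with the slope shared within a line.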

[2] = compound: C=CCNC1=C2C[C@@H](C)C[C@H](OC)[C@H](O)[C@@H](C)/C=C(\C)[C@H](OC(N)=O)[C@@H](OC)/C=C\C=C(/C)C(=O)NC(=CC1=O)C2=O [17-AAG]; details: top dose 1 µM
Experimental: as §1

[3] = compound: CN(C)Cc1cccc(N=C(c2ccccc2)c2c(O)[nH]c3cc(C(=O)N(C)C)ccc23)c1 [BIX02189]; details: top dose 20 µM; top dose inferred
Experimental: as §1

[4] = compound: COC(=O)CNC(=O)C(=O)OC [Dimethyloxalylglycine]; details: top dose 4000 µM; top dose inferred
Experimental: as §1

[5] = compound: COc1cccc2c1C(=O)c1c(O)c3c(c(O)c1C2=O)C[C@@](O)(C(=O)CO)C[C@@H]3O[C@H]1C[C@H](N)[C@H](O)[C@H](C)O1 [Doxorubicin]; details: top dose 1.024 µM
Experimental: as §1

[6] = compound: COc1cccc2cc(-c3nc([C@H]4CC[C@H](C(=O)O)CC4)n4ncnc(N)c34)[nH]c12 [OSI-027]; details: top dose 20 µM
Experimental: as §1

[7] = compound: CS(=O)(=O)c1ccc(C(=O)Nc2ccc(Cl)c(-c3ccccn3)c2)c(Cl)c1 [Vismodegib]; details: top dose 10 µM; top dose inferred
Experimental: as §1

[8] = compound: Cc1cnc(Nc2ccc(F)cc2Cl)nc1-c1c[nH]c(C(=O)N[C@H](CO)c2cccc(Cl)c2)c1 [VX-11e]; details: top dose 5.12 µM; top dose inferred
Experimental: as §1

[9] = compound: Cc1cnc(Nc2ccc(OCCN3CCCC3)cc2)nc1Nc1cccc(S(=O)(=O)NC(C)(C)C)c1 [TG101348]; details: top dose 10.24 µM
Experimental: as §1

[10] = compound: O=C(c1ccc(C(=O)N2CCC(N3CCCC3)CC2)c(Nc2ccccc2)c1)N1CCC(N2CCCC2)CC1 [UNC1215]; details: top dose 1 µM; top dose inferred
Experimental: as §1

[11] = compound: CCc1cc(-c2n[nH]c(C)c2-c2ccc3c(c2)OCCO3)c(O)cc1O [CCT018159]; details: top dose 10 µM; top dose inferred
Experimental: as §1

Row | Cell Line | AUC [1] | IC50 [1] | AUC [2] | IC50 [2] | AUC [3] | IC50 [3] | AUC [4] | IC50 [4] | AUC [5] | IC50 [5] | AUC [6] | IC50 [6] | AUC [7] | IC50 [7] | AUC [8] | IC50 [8] | AUC [9] | IC50 [9] | AUC [10] | IC50 [10] | AUC [11] | IC50 [11]
1 | MDA-MB-415 (breast, adherent) | 0.976 | > 10 µM | 0.767 | 0.5 µM | 0.983 | > 20 µM | 0.789 | 2470 µM | 0.929 | > 1.02 µM | 0.945 | > 20 µM | 0.983 | > 10 µM | 0.983 | > 5.12 µM | 0.983 | > 10.2 µM | 0.98 | > 1 µM |  | 
2 | A704 (kidney, adherent) | 0.984 | > 10 µM | 0.926 | > 1 µM | 0.913 | > 20 µM | 0.761 | 1380 µM | 0.876 | 0.965 µM | 0.939 | > 20 µM | 0.985 | > 10 µM | 0.939 | > 5.12 µM | 0.885 | > 10.2 µM | 0.987 | > 1 µM |  | 
3 | CHSA0011 (chondrosarcoma, adherent) | 0.958 | > 10 µM | 0.813 | 0.835 µM | 0.911 | > 20 µM | 0.814 | 3390 µM | 0.844 | > 1.02 µM | 0.826 | 19.4 µM | 0.98 | > 10 µM | 0.96 | > 5.12 µM | 0.833 | > 10.2 µM | 0.975 | > 1 µM |  | 
4 | MFE-319 (endometrium, adherent) | 0.983 | > 10 µM | 0.705 | 0.231 µM | 0.987 | > 20 µM | 0.759 | 1360 µM | 0.516 | 0.0708 µM | 0.714 | 4.93 µM |  |  | 0.97 | > 5.12 µM | 0.958 | > 10.2 µM | 0.987 | > 1 µM | 0.919 | > 10 µM
5 | HCC-78 (lung adenocarcinoma, adherent) | 0.967 | > 10 µM | 0.691 | 0.238 µM | 0.967 | > 20 µM | 0.51 | 267 µM | 0.686 | 0.235 µM | 0.408 | 0.668 µM | 0.967 | > 10 µM | 0.982 | > 5.12 µM | 0.811 | 6.64 µM | 0.97 | > 1 µM |  | 
6 | COLO-783 (melanoma, adherent) | 0.99 | > 10 µM | 0.956 | > 1 µM | 0.989 | > 20 µM | 0.933 | > 4000 µM | 0.944 | > 1.02 µM | 0.975 | > 20 µM | 0.979 | > 10 µM | 0.967 | > 5.12 µM | 0.98 | > 10.2 µM | 0.981 | > 1 µM |  | 
